Results from PubChem BioAssay AID485364 (National Center for Advancing Translational Sciences (NCATS), 2010).
Out of some 360,000 compounds screened, about 11,000 (3.1%) were called active. The shares of active, inactive and inconclusive entries below differ from those in the screen. The call rests on the fitted dose curve; in most records, active means well fitted inhibition curve with a large enough effect; inconclusive means small, poorly fitted or top-dose-only effect; inactive means no such curve, though single readings can be large or run the other way. Potencies of inconclusive entries are left out as doubtful fits.

Molecular target: Schistosoma mansoni thioredoxin glutathione reductase (TGR) (UniProt Q962Y6)
Test: qHTS Assay for the Inhibitors of Schistosoma Mansoni Peroxiredoxins; further: nearly all actives have a fitted effect of over 60% in size
Conditions: purified TGR, DTNB reduction, TNB absorbance 405 nm; series mostly up to 114 µM
In short: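 Kinetic colorimetric format: TGR-catalysed, NADPH-driven DTNB reduction monitored via TNB absorbance. Enzyme dispensed at 20 nM; compound exposure 15 min at room temperature before reaction start.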
Potency means the concentration at half of the fitted maximal effect; tags describe the fitted curve by direction and shape.

Row | SMILES | Potency
1 | COCCCN1C2=C(C(=O)CC(C)(C)C2)C(c2ccc(OC)c(OC)c2)C2=C1CC(C)(C)CC2=O | inconclusive [inhibitor, partial curve]
2 | COc1cccc(-c2nc(CS(=O)CC(=O)NC3CCCC3)c(C)o2)c1 (stereo not drawn) | inconclusive [inhibitor, full curve, poor fit]
3 | O=C(Nc1nnc(C2CC2)s1)c1cccnc1Oc1ccc(Cl)cc1 | inactive
4 | CCC(C(=O)n1cccc1C#N)c1ccccc1C (stereo not drawn) | active: 50.1 µM
5 | COCC(=O)Nc1cc(C(=O)Nc2cccc(C)c2C)ccc1Cl | inactive
6 | CCc1nn(CC(=O)NCCCN2CCc3ccccc3C2)c(=O)c2cc3sccc3n12 | inconclusive [inhibitor, single point]
7 | Cn1c(SCC(=O)N2c3ccccc3Sc3ccccc32)nnc1-c1ccco1 | inconclusive [inhibitor, partial curve]
8 | O=C1c2ccccc2NC(c2cc(Cl)cc(Cl)c2O)N1Cc1cccnc1 (stereo not drawn) | inconclusive [inhibitor, partial curve, poor fit]
9 | COCCn1c(Br)nc2c1c(=O)n(C)c(=O)n2C | inconclusive [inhibitor, full curve, poor fit]
10 | N#Cc1cccc(NC(=O)COC(=O)c2ccccc2C(=O)c2ccc(Cl)c([N+](=O)[O-])c2)c1 | inconclusive [inhibitor, full curve]
11 | O=C1CC(SCCc2nc3ccccc3[nH]2)C(=O)N1c1ccc(Cl)cc1 (stereo not drawn) | inconclusive [inhibitor, partial curve]
12 | Cn1c(=O)oc2cc(S(=O)(=O)CCC(=O)N3CCN(c4ccccc4)CC3)ccc21 | inactive
13 | CCCc1ccc2oc(C(=O)N3CCN(CCC(N)=O)CC3)c(C)c2c1 | inconclusive [inhibitor, partial curve]
14 | COc1ccc(NC(=O)c2c(NCc3ccc(C)o3)sc3c2CCC(C)C3)c(OC)c1 (stereo not drawn) | active: 28.2 µM
15 | COc1ccc(Cl)cc1S(=O)(=O)N(C)CC(=O)N1CCCC1 | inactive
16 | CCOC(=O)[C@H]1[C@H]2COc3ccc(Cl)cc3[C@@H]2N2C(=O)CN(Cc3ccco3)C(=O)[C@@]12C | active: 15.8 µM
17 | CCOC(=O)c1c[nH]c2c(Cl)c(Cl)ccc2c1=O | inactive
18 | COC(=O)C1=C(C)N(Cc2ccc(C)cc2)C(=O)/C1=C\c1ccc(O)c(OC)c1 | inconclusive [inhibitor, partial curve, poor fit]
19 | Nn1cnnc1N/N=C/c1ccc(Cl)c([N+](=O)[O-])c1 | inconclusive [inhibitor, partial curve]
20 | O=C(CCNc1ccccc1)c1ccc2c(c1)OCO2 | active: 2.24 µM
21 | Cc1nc2c(c(=O)n1Cc1ccccc1Cl)c1nc3ccccc3nc1n2Cc1ccco1 | active: 2.82 µM
22 | O=C(Cc1ccccc1)Nc1nc2ccccc2[nH]1 | inconclusive [inhibitor, full curve, poor fit]
23 | CCOc1ccc(S(=O)(=O)Nc2ccc(C(=O)NCC(C)(C)N3CCOCC3)cc2)cc1 | inactive
24 | C#CCSc1nc(C)cc(C(=O)OCC)c1C#N | inconclusive [inhibitor, partial curve]
25 | O=C(Nc1ccc(Cl)cc1)OC1CN2CCC1CC2 (stereo not drawn) | inactive

Row | SMILES | Potency
26 | O=C(O)c1cccc2c1C(=O)c1ccc(-c3ccc(F)cc3OCc3ccccc3)cc1S2(=O)=O | active: 31.6 µM
27 | C/C(=N/NS(=O)(=O)c1cccc([N+](=O)[O-])c1)c1ccncc1 | inconclusive [inhibitor, partial curve]
28 | CN(C)CCNC(=O)c1ccc(-n2c(-c3ccccc3)cc3c2CCCC3)cc1 | inactive
29 | CCOc1cccc(=O)c2c(C)n(-c3ccc(C(=O)O)cc3)c(C)c12 | inconclusive [inhibitor, partial curve]
30 | COc1ccc2c(c1)C1=NN(/C(C)=C\C(C)=O)C(c3ccccc3)C1CC2 (stereo not drawn) | active: 56.2 µM
31 | CCc1ccc(N2CC(C(=O)NCc3ccco3)CC2=O)cc1 (stereo not drawn) | inconclusive [inhibitor, partial curve]
32 | O=C1CCC2c3ccc4ccccc4c3CCN12 (stereo not drawn) | inconclusive [inhibitor, partial curve]
33 | CCCc1cc(C(=O)Nc2ccc(C#N)cc2)no1 | inactive
34 | COc1ccc(Nc2cc(C)nc3nc(C)nn23)cc1Cl | inactive
35 | Cc1ccc(S(=O)(=O)C(CNC(=O)C(=O)NCc2ccc(Cl)cc2)c2cccs2)cc1 (stereo not drawn) | active: 22.4 µM
36 | COCCNC(=O)C(c1ccc(C)o1)N(C(=O)c1snc(C(N)=O)c1N)c1cc(C)cc(C)c1 (stereo not drawn) | inconclusive [inhibitor, partial curve]
37 | COc1ccc(C(=O)N/N=C/c2cccc3cccnc23)cc1 | inactive
38 | C/C(=N/NC(=O)CNC(=O)/C=C/c1ccco1)c1ccc(Cl)cc1 | active: 8.91 µM
39 | O=C1CC(C(=O)Nc2ccc(Cl)cc2)n2ncnc2N1 (stereo not drawn) | inconclusive [inhibitor, single point]
40 | CCOc1ccccc1N1C(=O)CC(Nc2ccc(N3CCOCC3)cc2)C1=O (stereo not drawn) | active: 17.8 µM
41 | O=c1cc(CN2CCNCC2)nc2sccn12 | inconclusive [inhibitor, single point]
42 | CCOc1ccc(-n2c(CCC(=O)O)ccc2-c2ccc(Br)cc2)cc1 | inconclusive [inhibitor, partial curve]
43 | COC(=O)N/N=C/c1c[nH]c2ccccc12 | inactive
44 | Cn1nc([N+](=O)[O-])nc1Sc1ccc(Cl)cc1 | inconclusive [inhibitor, full curve]
45 | O=C(CC1C(=O)NCCN1Cc1ccc(-c2ccccc2)cc1)NC1CCC1 (stereo not drawn) | inconclusive [inhibitor, single point]
46 | O=C1COc2ccc(C(=O)COC(=O)Cc3ccc(Cl)cc3)cc2N1 | inconclusive [inhibitor, full curve]
47 | CCc1ccc(NC(=S)NCC2CCCN2CC)cc1 (stereo not drawn) | inactive
48 | CCc1ccc(CNC(=O)c2cnc3sc4cc(OC)ccc4n3c2=O)cc1 | inconclusive [inhibitor, single point]
49 | Cc1cc(C)nc(SCNC(=O)c2ccccc2)n1 | inconclusive [inhibitor, full curve]
50 | CSc1nc(-c2ccccc2)nc(C(Cl)Cl)n1 | inconclusive [inhibitor, single point]

Row | SMILES | Potency
51 | CCOC(=O)c1c(C)nc2sc(C(=O)Nc3ccc(C(C)=O)cc3)c(N)c2c1-c1ccc(OC)cc1 | inconclusive [inhibitor, full curve, poor fit]
52 | O=C(c1ccc(=O)oc1)N1CCN(c2ccc(F)cc2)CC1 | inconclusive [inhibitor, full curve]
53 | CC(=O)Nc1ccc(-c2nc3ccc(NC(C)=O)cc3o2)cc1 | inactive
54 | Cc1ccccc1C(=O)N=c1c(C#N)cc2c(=O)n3cccc(C)c3nc2n1Cc1ccco1 | inconclusive [inhibitor, partial curve]
55 | COc1ccc(CCn2c(NN=C3CCCC3)nc3c2c(=O)[nH]c(=O)n3C)cc1 | inconclusive [inhibitor, partial curve]
56 | COc1ccc(C(=O)/C=C/C(=O)N(CC(=O)NC2CCCCC2)Cc2cccs2)c(O)c1 | active: 1.58 µM
57 | CCN(c1ccc(NS(=O)(=O)c2cc(Cl)ccc2Cl)cc1)C(C)C | inactive
58 | Cc1ccc(C(=O)Cn2nnc(-c3ccccc3)n2)cc1 | inconclusive [inhibitor, partial curve]
59 | COc1cc(-c2nnc(SCC(=O)Nc3cc(C)on3)n2C)cc(OC)c1O | inconclusive [inhibitor, single point]
60 | CC(C)(C)c1ccc(/C=C/C(=O)N2CCCCC2)cc1 | inactive
61 | O=C(NCc1ccncc1)c1cc(C(=O)C2CC2)c[nH]1 | inconclusive [inhibitor, single point]
62 | CCC(C)NC(=O)Cn1ncc2c([nH]c3ccc(C)cc32)c1=O (stereo not drawn) | inactive
63 | N=c1c2c(ncn1Cc1ccco1)Oc1cc(O)ccc1C2c1ccccc1 (stereo not drawn) | inconclusive [inhibitor, partial curve]
64 | CCOc1ccccc1NC(=O)Cn1c(=O)n(Cc2ccccc2)c(=O)c2c(C)c(C)sc21 | inactive
65 | O=C(N/N=C/c1ccco1)c1ccc(NC(=O)C2CC2)cc1 | inconclusive [inhibitor, full curve]
66 | C=C[C@@H]1c2c(F)cccc2N(S(=O)(=O)c2ccc(C)cc2)[C@H](c2ccc(C(=O)OC)cc2)C1(C#N)C#N | inconclusive [inhibitor, full curve]
67 | COc1cc2c(cc1OC)C(c1ccccc1)N(C(=O)c1ccccc1)CC2 (stereo not drawn) | inactive
68 | COc1cccc(NC(=S)/C(=C(\[O-])c2cc(C)n(-c3ccccc3F)c2C)[n+]2ccc(N(C)C)cc2)c1 | inactive
69 | O=C(CNc1ccccc1)Nc1ccc(F)cc1 | inactive
70 | CN1CCc2nc(SCCOc3ccccc3)c(C#N)cc2C1 | inconclusive [inhibitor, partial curve]
71 | CCOc1ccccc1NC(=O)c1c(NC(=O)c2cccc(C)c2)sc2c1CCCC2 | inconclusive [inhibitor, single point]
72 | Cc1ccc(-c2onc3ccc(C(=O)O)cc23)cc1 | inconclusive [inhibitor, partial curve]
73 | Cc1cc(CNC(=O)CC2C(=O)NCCN2CC(C)(C)C)nn1C (stereo not drawn) | inconclusive [inhibitor, partial curve]
